Laboratory results taken from PMC12136788.
The list shows a part of the results.

B1: chr18:50337633:50337634:+_ENSMUSG00000024507_ENSMUST00000025385|mus_mus|FALSE|FALSE (ssRNA)
RNA: GGGAGUUCUACAGUCCGACGAUCAUACACUGGUUUGGCAAAACGAACCUUAAUCGCCUUGAAUCUUGAUACAUCAUUAUCUGCAAACUGCUGUAAAACAUGCCUUGCAGAAAAUCCAAAGGUACAUAGUCCAUGUAAUAUGGGCAACAGAGGAUUGAGCAUCA
B2: chr15:76910149:76910150:-_ENSMUSG00000033565_ENSMUST00000166610|mus_hu|FALSE|FALSE (ssRNA)
RNA: GGGAGUUCUACAGUCCGACGAUCACAAGAAAAACAAUUCAUAUCCCUUAGGGAAAAAAGAGGAUCAAUUCAUCACUCAAUAUAUAAUACAGCCAAAAUGAGCUGCCAAAACAAGCACACACACAAAUACUGUGAACAGAAAAACAACAGAGGAUUGAGCAUCA
B3: chr2:4533090:4533091:+_ENSMUSG00000026657_ENSMUST00000075767|mus_hu|FALSE|FALSE (ssRNA)
RNA: GGGAGUUCUACAGUCCGACGAUCCGACAGUUAAACACUGAAUGGAUCGCAAUGUGCUUUUCCCUUGGUUUCCCAUAAAAACGAAAAUGAAACACCUUGUGCAAAAAAAUAGGAUACGCUUUUACUGGUUGGUUUAAUGAGAGACAACAGAGGAUUGAGCAUCA
B4: 17233736_17255093_132_5pUTR_ENSMUSG00000050240_ENSMUST00000090190|mouse|control|control (ssRNA)
RNA: GGGAGUUCUACAGUCCGACGAUCAGACUUCCUGAGGGUGCAUCAAAGCCUGGUUACCUCAGGUGCCUGCCAGAGGCCCCUCGUCUUGGGCGCCCGACCUGAGCUGCACGCGCCCGCCCUGUCCGCCCUCCGCCGGCCCCCGCUCAACAGAGGAUUGAGCAUCA
B5: chr1:138071448:138071449:+_ENSMUSG00000041642_ENSMUST00000075164|mus_mus|motif|central (ssRNA)
RNA: GGGAGUUCUACAGUCCGACGAUCGGUAUGCCGGCAUGGGCAGGUCCGGGGCAAUUGUCAGAGCUGCAAAGGAUAGAGAAGGCGGUCCCCUCAUCUGCAGAGCAAGCAGAGGGAAGGCCCCCACCCCCACCCCACCCCACCCCACAACAGAGGAUUGAGCAUCA
B6: chr2:191069868:191069869:-_ENSG00000198130_ENST00000359678|hu_mus|FALSE|FALSE (ssRNA)
RNA: GGGAGUUCUACAGUCCGACGAUCAGCUUGUAGGCUGCAUGAAAAUGGGCCUAGCCUCUGUGCUAUGAUGUGUUGACCUUUGCUCCAAAAUAAACUUUAGAAUUUCAAAUCACUGCUUCCCAGAGAUUUAAAGUAACUAUUCAACAACAGAGGAUUGAGCAUCA
B7: chr6:71561584:71561585:-_ENSMUSG00000053470_ENSMUST00000065509|mus_hu|motif|central (ssRNA)
RNA: GGGAGUUCUACAGUCCGACGAUCACAGCUUUCAUUAUCUACUUUUACUGAAGAUUCCUUUAAAUUCUGUGAUCGGCAAGCGGAAGCUGAAGGUUCUACCUUUUUUCCUGAACAGUUAUUAGGGCUAUCACUAUUGACACCUGCCAACAGAGGAUUGAGCAUCA
B8: 53397354_53399507_792_3pUTR_ENSMUSG00000032047_ENSMUST00000034547|mouse|control|control (ssRNA)
RNA: GGGAGUUCUACAGUCCGACGAUCCUUUCACCACCACAUCUGGUUUACCUUUCACUGAGAUGGUGAUGGGAGUAAUCUCACUGGCAAACUUCCCUGCGUCCCACGCUUCUUUACUUCUGGUGUAAGAGCUGAGAGCGUACGUAUCAACAGAGGAUUGAGCAUCA
B9: chr2:69673326:69673327:+_ENSMUSG00000042155_ENSMUST00000053087|mus_hu|FALSE|FALSE (ssRNA)
RNA: GGGAGUUCUACAGUCCGACGAUCAUCAGAAAUGCUAGGUAGUUUUAAACUUCAGUGAGUUAAAAAUAAUUAUUGUCUCUUUUUAAAAAAUGAAGAGUGUGGAAUAGAUGGUCUCACAGAUAACUAAUGGUGUAAAGGAGUUAACAACAGAGGAUUGAGCAUCA
B10: 102314616_102314736_7932_3pUTR_ENSG00000166135_ENST00000299163|human|control|control (ssRNA)
RNA: GGGAGUUCUACAGUCCGACGAUCGUCUCCCCUACUGAUCUGAGAGCACCACAUGGGGACGAACUAAUACAGUGCCUGGAACAGAAGUGUUCAACAAAUGGUAGCUAUUAACAUCCCACUCAUAUUUUUCUGAAUUUUGAUUGCCAACAGAGGAUUGAGCAUCA
B11: chr12:48362563:48362564:+_ENSG00000134291_ENST00000256686|hu_hu|hu_hu_hu_mus_False|48_108 (ssRNA)
RNA: GGGAGUUCUACAGUCCGACGAUCUCCGAAGGGUGAAUCGAUAGACCCUUGCGGGGGAAACUGUAAUCACUUUGUAUGGGGAAGGAAAAAAAAAGCCAAAAACUUUCCAAAAAGCGGGGGUGGGGUGAGGCGGGAGGGGGAGGUCAACAGAGGAUUGAGCAUCA
B12: chr7:141441981:141441982:+_ENSG00000106028_ENST00000265304|hu_mus|hu_hu_hu_mus_False|18_78 (ssRNA)
RNA: GGGAGUUCUACAGUCCGACGAUCCUCAUGUCUUACAAACUGACGAAAUACCUGUAAUACAGGUCUUCGAAACAUGGCUUCUGUUUUUCUUACAACCUAAUCUUUAGGCUUUUCCUACCUGACGAUCAGAAAAGAGAAAAAUGACAACAGAGGAUUGAGCAUCA
B13: chrX:140365796:140365797:-_ENSMUSG00000031285_ENSMUST00000033642|mus_mus|mus_mus_mus_hu_False|18_18 (ssRNA)
RNA: GGGAGUUCUACAGUCCGACGAUCCUUCUCAUUACUCAGUGCCUGCAAGGUUCUGGUUCGGUAGAAGCUACAGUGGGCGCUGUGAGUGGGGCUAGGCAACCCAUUCAUCCGGGAGCCUCUCAUAUUUCUGGAUGUCUUAUCUCUCAACAGAGGAUUGAGCAUCA
B14: chr16:94647761:94647762:+_ENSMUSG00000040785_ENSMUST00000117648|mus_hu|FALSE|FALSE (ssRNA)
RNA: GGGAGUUCUACAGUCCGACGAUCGAUAAUCUUAGAAAUGACACCUUCACAGUCAGGGGUAAGACAUAUUCCUUGUAGAAAAUCCUUGUCAAUUUUAUCAUUAAAGGUUGUAGUUUUUAACUUCUUCCAGCAAUUCAUGUGAAACAACAGAGGAUUGAGCAUCA
B15: chr7:141450121:141450122:+_ENSG00000106028_ENST00000265304|hu_mus|hu_hu_hu_mus_True|1_98 (ssRNA)
RNA: GGGAGUUCUACAGUCCGACGAUCUCAUCCGUUCUAUUCCUUCUCUUUUGUCUGGUCACUCAGAAAUAUAAUGUUAUCAGCUAUGAUUGUUGUUGCUUGCCGCCUCACAUUGUUUUUAUCCAUGUACUCGCCAUAGUCUAUUUUCAACAGAGGAUUGAGCAUCA
B16: chr15:83807826:83807827:-_ENSG00000166503_ENST00000299633|hu_mus|FALSE|FALSE (ssRNA)
RNA: GGGAGUUCUACAGUCCGACGAUCAUUAAGGGCAACUUCAUGCAACCAAAUAACAUAAAAUAAAGUCAACCUUAAAAGGGUUAAAAUGUCUCUUUUUCCUUCAACAGAACAGAGAGGAAUGUGACUAAUGCACACACAUACUGGCAACAGAGGAUUGAGCAUCA
B17: chr7:149068622:149068623:-_ENSMUSG00000025139_ENSMUST00000001950|mus_hu|mus_mus_mus_hu_False|98_108 (ssRNA)
RNA: GGGAGUUCUACAGUCCGACGAUCGUGCAGGUACUGAGUGAGGUUCCUGGUCUGUCCUGGGUUAGAGUUGUUAAUAUCACGGAACAUACCAUCUAGAACGUUCCAGUCCCGCCUGACACCUUCAUUCCCAAUGGAGAAGAAAUCCAACAGAGGAUUGAGCAUCA
B18: chr11:31958201:31958202:+_ENSMUSG00000020297_ENSMUST00000020537|mus_mus|motif|central (ssRNA)
RNA: GGGAGUUCUACAGUCCGACGAUCCCAUGAGUUUGUGCAAAUCUUGCAAGCUCACCAUUGAGUGGUACUCUGUGCAUUCCGGGUUGAGAAAUGCCAACAUCACCUUCCUCUCCAAAUCAGCCUUGCCUGCCAUCGCUGUGCUUCCAACAGAGGAUUGAGCAUCA
B19: chr4:86222814:86222815:+_ENSMUSG00000070934_ENSMUST00000091064|mus_hu|FALSE|FALSE (ssRNA)
RNA: GGGAGUUCUACAGUCCGACGAUCGACAUUAUGAAUAUUAAAAAUAAAGGAUGCAAACAAAAAAGGCAAUUCAGCAUUUUCAGAAAGAGCAUUUGGCAAUAUUCAACGCAUAAGGAGACUGUGCUUGGGGCCAUCCACUCUCUCCAACAGAGGAUUGAGCAUCA
B20: chr11:105132459:105132460:+_ENSMUSG00000020694_ENSMUST00000015107|mus_mus|FALSE|FALSE (ssRNA)
RNA: GGGAGUUCUACAGUCCGACGAUCGAUCUUGGAAAGACCAAAAUCUGUAAUUUUUAUCUCUCCACAUGCUGUACCAUUUACUAAAAGGAUAUUACCUGGUUUGAGGUCAUAGUGUAUGAUGGGAGGUUUUAUUUCAUUUAAGUACAACAGAGGAUUGAGCAUCA
B21: chr5:4806447:4806448:-_ENSMUSG00000028926_ENSMUST00000030763|mus_mus|FALSE|FALSE (ssRNA)
RNA: GGGAGUUCUACAGUCCGACGAUCUCACAGAGACACCGUGCGAUGGACACUGUGCGGCAGGGGGAAGCAAACAGAACCAGACACAAAAGACGGAAAAGAAUACAUGCCAUGUAGCAGUAAGCAAAGCUUAAUCGUCACGUAGUUCAACAGAGGAUUGAGCAUCA
B22: 59925389_59927128_2872_CDS_ENSMUSG00000067336_ENSMUST00000087435|mouse|control|control (ssRNA)
RNA: GGGAGUUCUACAGUCCGACGAUCCUUGAUCUUUUCACCUGAUCCUGAUUUGCCAUCUUGUGUUGACUCACCUAUCUGUAUACUGCUGCCAUCCAGGAUAUUUGUGGCUGAAAGAUCCAGAGAAUUGGGCCUCUGUGCUCUUCUCAACAGAGGAUUGAGCAUCA

Biological target: T1, UNK ZnF1-3 (human, UniProt Q9C0B0 31-174)
T1 sequence: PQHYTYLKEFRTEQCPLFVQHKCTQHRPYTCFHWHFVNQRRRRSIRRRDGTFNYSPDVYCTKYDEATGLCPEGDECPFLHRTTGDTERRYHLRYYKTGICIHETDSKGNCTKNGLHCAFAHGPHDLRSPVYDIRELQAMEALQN
Test: nsRBNS (natural sequence RNA bind-n-seq); RBNS binding buffer (assumed for nsRBNS): 25 mM Tris pH 7.5, 150 mM KCl, 3 mM MgCl2, 0.01% Triton X-100, 500 ug/ml BSA, 20 U/ml SUPERase-In, 4 C; UNK is unkempt and MSI1 is Musashi-1; names of the RNAs are library labels; protein concentration not given here; high values mean tight binding

Binder | binding signal
B1 | 0.767 enrichment R
B2 | 2.59 enrichment R
B3 | 1.45 enrichment R
B4 | 0.676 enrichment R
B5 | 1.41 enrichment R
B6 | 1.41 enrichment R
B7 | 0.997 enrichment R
B8 | 0.47 enrichment R
B9 | 1.75 enrichment R
B10 | 1.23 enrichment R
B11 | 2.74 enrichment R
B12 | 0.616 enrichment R
B13 | 0.711 enrichment R
B14 | 0.653 enrichment R
B15 | 0.38 enrichment R
B16 | 0.975 enrichment R
B17 | 0.739 enrichment R
B18 | 0.887 enrichment R
B19 | 2.35 enrichment R
B20 | 0.987 enrichment R
B21 | 1.11 enrichment R
B22 | 0.577 enrichment R
